Experimental data published in FireProtDB (doi:10.1093/protein/5.6.519).

Settings: Homo sapiens; pH 7.5; 23 °C; GdnHCl; CD; Tris 0.2 M; reversible: yes

Substance: Insulin wild type (letters omitted)
- denaturant midpoint (higher = more stable): 5.1 M
- unfolding free energy: 4.4 kcal/mol
